In article PMC6919601, “Identification of Plasmodium dipeptidyl aminopeptidase allosteric inhibitors by high throughput screening” (PLoS ONE, 2019):
Out of some 110,000 compounds screened, about 230 (0.21%) showed an effect of 50% or more. The list shows a part of the results.

Biological target: DPAP1 (Plasmodium falciparum, UniProt Q8IIJ9)
Experiment: primary screen, percent inhibition; read by cleavage of a fluorogenic dipeptide substrate; higher = more effect of the substance
Parameters: species or system P. falciparum D10 trophozoite lysates; single well
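Further: 30 min substrate incubation versus DMSO and 10 µM JCP410 controls.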

Chain of DPAP1 (Q8IIJ9 whole entry, looked up): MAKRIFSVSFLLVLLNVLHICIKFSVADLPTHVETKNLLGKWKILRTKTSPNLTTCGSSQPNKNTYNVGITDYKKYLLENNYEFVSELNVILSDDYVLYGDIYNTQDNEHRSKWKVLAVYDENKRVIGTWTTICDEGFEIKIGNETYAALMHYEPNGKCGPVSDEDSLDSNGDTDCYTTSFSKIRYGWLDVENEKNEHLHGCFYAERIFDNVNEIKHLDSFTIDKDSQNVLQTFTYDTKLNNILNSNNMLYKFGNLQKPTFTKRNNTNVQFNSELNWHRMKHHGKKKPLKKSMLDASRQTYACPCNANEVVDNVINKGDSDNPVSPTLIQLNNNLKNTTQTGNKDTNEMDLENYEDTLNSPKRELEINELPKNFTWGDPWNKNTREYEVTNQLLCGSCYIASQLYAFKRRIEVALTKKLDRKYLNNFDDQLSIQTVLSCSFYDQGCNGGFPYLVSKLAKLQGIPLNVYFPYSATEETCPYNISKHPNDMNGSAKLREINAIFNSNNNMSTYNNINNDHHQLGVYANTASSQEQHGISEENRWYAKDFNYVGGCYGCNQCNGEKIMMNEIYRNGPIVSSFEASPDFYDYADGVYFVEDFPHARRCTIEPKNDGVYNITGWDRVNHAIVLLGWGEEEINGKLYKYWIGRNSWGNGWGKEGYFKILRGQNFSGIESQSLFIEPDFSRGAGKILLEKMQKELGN

In order of falling “% Inhibition @ 10 uM” value:
1. CCCOc1ccc(/C=C2\N=C(c3ccccc3)OC2=O)cc1  22.7%
2. Cc1ccsc1/C=C1\CCC(C2CCCC2)C1=O (stereo not shown)  13.9%
3. N#Cc1cccc(Oc2ccc(-c3nc4ccccc4nc3-c3ccccc3)cc2)c1C#N  9.31%
4. Cc1cccc(N(CC(=O)Nc2cc(C(F)(F)F)ccc2Cl)S(C)(=O)=O)c1  8.13%
5. CC(C)C[C@H](NC(=O)c1ccc(OCCc2ccccn2)cc1)C(=O)NCC#N  7.72%
6. Cc1ccc(OCC(=O)Nc2ccc(Cl)c(Cl)c2)cc1  7.22%
7. Cn1c2c(c(=O)[nH]c1=O)C(c1ccc(Br)cc1)C1=C(O)c3ccccc3C1=N2 (stereo not shown)  7.1%
8. CC1(C)CC2=Nc3nc(O)nc(O)c3C(c3ccc(O)cc3)C2=C(O)C1 (stereo not shown)  6.82%
9. NC1=NN=C(c2ccccc2)CS1  6.15%
10. CCOC(=O)C1=C(CN2CCN(Cc3ccc4c(c3)OCO4)CC2)NC(=O)NC1c1cccs1 (stereo not shown)  5.71%
11. CC(NS(=O)(=O)c1ccc(OCC(=O)Nc2ccc(F)cc2)cc1)c1ccccc1 (stereo not shown)  5.39%
12. N=c1c(C(=O)NCCc2ccccc2)cc2c(=O)n3ccccc3nc2n1C1CCCC1  5.17%
13. Cc1cccn2c(=O)c(/C=C3\SC(=S)NC3=O)c(NCCCN3CCOCC3)nc12  5.1%
14. Cc1c(C(c2cccc(O)c2)c2c(C)n(C)n(-c3ccccc3)c2=O)c(=O)n(-c2ccccc2)n1C  5.03%
15. CC(C)(C)Nc1nc2ccccc2nc1-c1ccncc1  4.57%
16. Cc1c(C(=O)N2CCCC2)oc2c1-c1nn(CC(=O)NC(C)c3ccc4c(c3)OCCO4)cc1CC2 (stereo not shown)  4.4%
17. CCCN(CCC)Cc1nc(O)c2c(n1)-c1ccccc1CC21CCCCC1  4.17%
18. Cc1ccccc1NS(=O)(=O)c1ccc(F)cc1  3.47%
19. CC(=O)N1CCc2c(sc3c2c(=O)n(CCc2ccccc2)c(=O)n3Cc2ccccc2Cl)C1  3.32%
20. COc1cc(C2C(C(=O)c3ccc(C)cc3)=C(O)C(=O)N2CCN2CCOCC2)ccc1O (stereo not shown)  3.13%
21. O=S(=O)(Nc1ccccc1-c1ccccc1)c1ccc2c(c1)OCCO2  2.95%
22. COc1ccc(CNc2ccc(C)c(C)c2)cc1OC  2.78%
23. O=c1c2ccccc2nc2nc(-c3ccccc3)cc(-c3ccc([N+](=O)[O-])cc3)n12  2.55%
24. CC(C)Oc1ccc(CC2CCC(=O)N(C)C2=O)cc1 (stereo not shown)  2.51%
25. CC1=C(C(=O)Nc2ccc(C)cn2)C(c2cn(C)nc2C)C2=C(O)CC(c3ccccc3)CC2=N1 (stereo not shown)  2.51%
26. O=C(CSc1ccc(F)cc1)Nc1ccc(F)c(F)c1  2.51%
27. O=C(c1cc2c(Cl)nc3ccccc3c2s1)N(Cc1ccco1)CC1CCCO1 (stereo not shown)  2.5%
28. CCc1cccc(CC)c1NC(=O)CSc1nc(C)cc(O)n1  2.48%
29. Cc1ccc(NC(=O)c2ccc(Cl)cc2Cl)cc1Cl  2.22%
30. CCOC(=O)c1cnc(SCC(=O)N2CCOCC2)nc1N  2.21%
31. O=C(/C=C/c1ccco1)N1CCN(c2ccc(F)cc2)CC1  2.16%
32. Cc1ccc(-c2nnn3c2nc(NCc2ccco2)c2ccccc23)cc1  2.04%
33. CCOc1ccc(CNS(=O)(=O)c2ccc3[nH]c4c(c3c2)CCCCC4)cc1  2.01%
34. CCCn1cnc2cc(NC(=O)c3cccs3)ccc21  1.83%
35. CC1(C)CC(=O)C(C(C2=C(O)CC(C)(C)CC2=O)c2cc(Cl)cc(Cl)c2O)C(=O)C1 (stereo not shown)  1.63%
36. O=C(NCc1ccccc1)C1CC=CCC1C(=O)OCC1CCCO1 (stereo not shown)  1.63%
37. CCCCSc1nnc2c(n1)OC(c1ccc(C(C)(C)C)cc1)Nc1ccccc1-2 (stereo not shown)  1.4%
38. Cc1nn(C)c(C)c1NC(=O)CC12CC3CC(CC(C3)C1)C2  1.32%
39. CC1=C(C(=O)OCC(C)C)C(c2cccc(Cl)c2)NC(=O)N1 (stereo not shown)  1.27%
40. CCCC(O)(CCN(C)C)c1ccc(OC)cc1 (stereo not shown)  1.2%
41. Cc1nc(-n2cccc2)sc1C(=O)NCc1ccccc1  1.03%
42. COCc1cc(C)n(CC(=O)Nc2ccc(OC)cc2)c(=O)c1C#N  0.726%
43. COc1ccc(CN2C(=O)c3cccnc3C2=O)cc1S(=O)(=O)NCCc1ccc(Cl)cc1  0.533%
44. CC(=O)c1ccc(N2CCN(Cc3[nH]cnc3C)CC2)cc1  0.472%
45. COC(=O)c1c(NC(=O)C2Cc3ccc(C)cc3C(=O)O2)sc2c1CCCC2 (stereo not shown)  0.221%
46. COc1ccc(OC)c2nc(O)c(CCNS(=O)(=O)c3ccc(F)cc3)cc12  0.205%
47. CS(=O)(=O)c1ccc2nc(NC(=O)CCCN3C(=O)c4cccc5cccc(c45)C3=O)sc2c1  -0.305%
48. CCOC(=O)c1c(S(=O)(=O)NCCc2ccc(OC)c(OC)c2)c(C)n(C)c1C  -0.349%
49. COc1ccc(C(=O)Nc2nc(N3C(=O)c4ccccc4C3=O)n(-c3ccccc3)n2)cc1  -0.386%
50. O=C(NC1CCCC1)c1cnn2c(C(F)(F)F)cc(-c3ccco3)nc12  -0.553%
51. COCCCNC(=O)C(=O)c1cn(C)c2ccccc12  -0.834%
52. COC(=O)Nc1ccccc1C(=O)NCCc1ccccc1  -0.891%
53. CC1CC(C)CN(C(=O)C2CCCN(c3nnc(N4CCCC4=O)s3)C2)C1 (stereo not shown)  -1.08%
54. CCc1ccc(-c2cc3c(=O)n(CC(=O)NCc4ccc(OC(C)C)cc4)nc(C)n3n2)cc1  -1.08%
55. O=C(Cc1coc2ccc3ccccc3c12)Nc1ccc(Cl)cn1  -1.11%
56. O=C(CN1CCCC1)Nc1c2c(cc3c1CCC3)CCC2  -1.17%
57. CC1CCN(S(=O)(=O)c2cccc(C(=O)O)c2)CC1  -1.22%
58. COc1ccc(OCC(=O)N2CCN(S(=O)(=O)Cc3ccccc3)CC2)cc1  -1.26%
59. Cc1ccc(Cn2c(N3CCN(CCO)CC3)nc3c2c(=O)n(C)c(=O)n3C)cc1  -1.4%
60. CCc1nnc(NC(=O)CSc2nc(N)nc(SC)c2C#N)s1  -1.68%
61. COCCCNC(=O)c1nnc(Cc2ccc(C)cc2)o1  -1.68%
62. Cc1cc(NC(=O)CSc2nc3c(c(C(F)(F)F)n2)CCc2ccccc2-3)no1  -1.72%
63. CCOC(=O)c1cnc(SCc2ccccn2)nc1N  -1.78%
64. Cc1cc(C(F)(F)F)nc(O)n1  -1.85%
65. CCCN(CCC)C(=O)C1=C(C)C(=O)OC12CCC(C)CC2 (stereo not shown)  -1.89%
66. O=S(=O)(c1ccc2ocnc2c1)c1ccc2ocnc2c1  -1.98%
67. O=C(CSc1ccccn1)Nc1ccc(Br)cc1Cl  -2.16%
68. Cc1cccn2c(=O)c3cc(C#N)c(=O)n(CCCN4CCOCC4)c3nc12  -2.28%
69. CCCN(CCC)S(=O)(=O)c1ccc(C(=O)NCc2ccc3c(c2)OCO3)cc1  -2.39%
70. CCN1CCN(c2ncnc3c2nnn3Cc2ccccc2)CC1  -2.63%
71. C1=CCN(Cc2nc3ccccc3[nH]2)CC1  -2.75%
72. COCc1cc(O)nc(SCC(=O)Nc2ccc(Cl)c(Cl)c2)n1  -2.86%
73. CCCOc1ccc(C2C(C(=O)OCC)=CN(C(C)C)C=C2C(=O)OCC)cc1  -3.23%
74. COc1ccccc1OCc1nc2ccccc2n1Cc1ccccc1  -3.28%
75. Nc1ncnc2c1ncn2CCNCCc1ccccc1  -3.33%
76. O=C(NCCCn1c2ccccc2c2ccccc21)NC12CC3CC(CC(C3)C1)C2  -3.34%
77. C/C(CCC1CC(C)(C)OC1=O)=N\NC(N)=S (stereo not shown)  -3.4%
78. CS(=O)(=O)N(CC(=O)N1CCc2ccccc2C1)c1cccc2ccccc12  -3.46%
79. CC[C@H](NC(=O)[C@@H](CS(=O)(=O)Cc1ccccc1)NC(=O)N1CCOCC1)C(=O)c1ncco1  -3.49%
80. NC(=O)C1CCN(C(=O)c2cnn3c(C(F)F)cc(-c4ccccc4)nc23)CC1  -3.69%
81. O=C1c2cccc3cccc(c23)C(=O)N1CCN1CCN(C(=O)C23CC4CC(CC(C4)C2)C3)CC1  -3.85%
82. COc1ccc(C2=NN(C(=O)CCC(=O)O)C(c3ccc(Br)cc3)C2)cc1 (stereo not shown)  -4.49%
83. CC1CCCC(OC(=O)Nc2ccccc2)C1 (stereo not shown)  -4.52%
84. Oc1nncc2c1[nH]c1ccccc12  -5.37%
85. NC(=O)Cn1cnc(-c2ccc(F)cc2)c1  -5.51%
86. Cc1cccc(NC(=O)Nc2cn(CC(C)C)c(=O)c3ccccc23)n1  -5.75%
87. CC1CCN(C(=O)c2cc(Cl)nc3ccccc23)CC1  -5.88%
88. CC(=O)N(C)c1ccc(NC(=O)C(C)Oc2ccc(Cl)cc2Cl)cc1 (stereo not shown)  -5.95%
89. CCC1CCCCN1CCCNC(=O)Cn1ncc2c1-c1cc(C)ccc1OC2 (stereo not shown)  -6.07%
90. O=C(Nc1ccc2c(c1)OCCO2)C(F)(F)C(F)(F)C(=O)Nc1ccc2c(c1)OCCO2  -6.48%
91. Cc1c(C(=O)OC(C)C)sc(NC(=O)C2c3ccccc3Oc3ccccc32)c1C#N  -6.78%
92. CC[C@@H](C)[C@H](NC(=O)c1cccc(NC(=O)OC(C)(C)C)c1)C(=O)N[C@@H](CCc1ccccc1)C(=O)COCc1ccccc1  -7.36%
93. CC(=O)Nc1ccc(OCc2ccccc2)cc1  -7.42%
94. COc1ccc(OC)c(NS(=O)(=O)c2ccc3c(c2)OCCO3)c1  -8%
95. CCOC(=O)C1CCN(c2ccccn2)CC1  -8.19%
96. O=C(CN1C(=O)c2ccccc2S1(=O)=O)Nc1cccc(C(F)(F)F)c1  -10.2%
97. CCCNC(=O)CCCn1nc(C)c2c(C)n(-c3ccc(C)cc3)nc2c1=O  -10.2%
